# Reference: PubChem BioAssay AID540267 (National Center for Advancing Translational Sciences (NCATS), 2011)
# “And” between values parts separate entries of the source, which are not always exact repeats. Identical values can stand only once. Out of some 340,000 compounds screened, about 530 (0.16%) were called active. Inconclusive means that the source gave no clear call. Such entries were picked first, then a sample of the others. Rule as the data show it: active = activity change below about -80%; inconclusive = between about -30% and that limit; inactive = weaker than that.
# Assay: Small Molecules that selectively kill Giardia lamblia: qHTS;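 also: parasites exposed to compound for two days anaerobically before the ATP read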
# Details: Giardia lamblia trophozoite viability; at 7.66 µM; hits give low values
# How it was run: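 Each well holds 100 Giardia trophozoites and compound. After two days (48 hrs) at 37 deg C in anaerobic conditions, ATP is quantified by luminescence.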
# % is scaled to controls: 0 for no effect and ±100 for the full control effect.
row,SMILES,activity change
1,O=C(NC1CC1)C1=C[C@H](c2ccc(Br)cc2)C[C@H](OCc2ccc(CO)cc2)O1,inactive: -20%
2,CC(=Nc1ccccc1)C1=C(O)C(CC(C)C)NC1=O (stereo not drawn),inactive: 14.3%
3,COc1ccc(NC(=O)CS(=O)(=O)c2ccc(Br)cc2)cc1,inconclusive: -32.6% [inhibitor]
4,Cc1cc2oc(C(=O)N(Cc3ccccc3)c3ccccn3)cc(=O)c2cc1Cl,inconclusive: -30.2% [inhibitor]
5,COc1ccc(-c2nc(NC(=O)c3ccc(OCC(=O)N4CCOCC4)c(OC)c3)sc2C)cc1,inconclusive: -35.7% [inhibitor]
6,Cc1ccc(C(=O)Nc2ccc3c(c2)OCCO3)c(Cl)c1,active: -82.8%
7,CC(C)N=c1c([N+](=O)[O-])nn(C)n1O,inconclusive: -62.9% [inhibitor]
8,CC(C)c1nc(SCC(=O)N2CCCCCC2)c2c(=O)n(C)c(=O)n(C)c2n1,inactive: 24.8%
9,COC(=O)c1c(NC(=O)COC(=O)CNC(=O)c2ccco2)sc(C)c1C,inactive: 0.734%
10,COc1ccc(/C=C/C(=O)O/N=C(\N)c2ccccn2)cc1OC,inactive: -6.01%
11,CC(C)C[C@@H](CSc1ccc(Br)cc1)N1CCN(CCc2ccccc2)CCC1=O,inconclusive: -31.4% [inhibitor]
12,Cc1cc(Br)ccc1NC(=O)CN(C)C(=O)COc1cccc2c1OC(C)(C)C2,inactive: -9.28%
13,CC(C)(C)C(=O)N1CCc2cc(-c3csc(N)n3)ccc21,inconclusive: -60.5% [inhibitor]
14,CCN(CC(=O)Nc1ccc(OC)cc1)C(=O)c1ccccc1Sc1ccccc1C#N,inconclusive: -38.5% [inhibitor]
15,COC(=O)C1(CCSC)NC(c2ccc(O)cc2)C2C(=O)N(c3ccc4c(c3)OCCO4)C(=O)C21 (stereo not drawn),inconclusive: -30.8% [inhibitor]
16,COc1ccc2c(c1)[n+](=O)c(C(C)=O)c(C)n2[O-],inconclusive: -58.4% [inhibitor]
17,C=CC(=O)Nc1cccc(N(C)c2ccnc(Nc3ccc(N4CCN(C)CC4)cc3)n2)c1,inconclusive: -41.1% [inhibitor]
18,Nc1nc(COC(=O)c2ccc3c(c2)OCCO3)nc(Nc2ccccc2)n1,inconclusive: -32% [inhibitor]
19,COc1ccc(S(=O)(=O)NCC2CCCN(C(=O)c3cccs3)C2)cc1 (stereo not drawn),inconclusive: -31% [inhibitor]
20,O=C1c2ccccc2C(=O)C1c1ccc2ccccc2n1,inconclusive: -56.4% [inhibitor] and inconclusive: -50.8% [inhibitor]
21,CC(=O)CSc1ccc(-c2nc3cc(C)c(C)cc3[nH]2)cn1,inconclusive: -53.8% [inhibitor]
22,C=C(C(=O)c1ccccc1)C(C)C(=C)C(=O)c1ccccc1,inactive: -20.3%
23,CC(C)c1ccc(NC(=O)C2CCN(C(=O)[C@@H]3Cc4ccccc4CN3)CC2)cc1,inconclusive: -36.5% [inhibitor]
24,Cc1ccc(N/C(C(Cl)=C(Cl)Cl)=C(/Cl)[N+](=O)[O-])c(C)c1,active: -94.4%

row,SMILES,activity change
1,COC(C(=O)Nc1ccc(C(N)=O)cc1)c1ccccc1 (stereo not drawn),inconclusive: -31.8% [inhibitor]
2,O=C(Cc1ccc(-n2c(=O)c3sccc3n(CC(=O)Nc3ccccc3)c2=O)cc1)NCc1ccco1,inconclusive: -46.2% [inhibitor]
3,O=C(C1=C(O)C(=O)N(CCCn2ccnc2)C1c1ccccc1)c1ccco1 (stereo not drawn),inconclusive: -30.9% [inhibitor]
4,O=C(N/N=C/c1ccc([N+](=O)[O-])s1)C(O)c1ccccc1 (stereo not drawn),inconclusive: -79.5% [inhibitor]
5,O=C(CSc1ccsc1[N+](=O)[O-])NC1CCCC1,active: -90.4%
6,FC(F)(F)c1ccc2c3n(nc2c1)CCN=C3c1ccc(Cl)cc1,inconclusive: -42.6% [inhibitor]
7,O=C(CCC1CCN(C(=O)c2cc(C(F)(F)F)ccc2Cl)CC1)NC1CC1,inconclusive: -38.9% [inhibitor]
8,Cc1cccc(NC(=O)CC2SC(=O)N(c3ccccc3)C2=O)c1 (stereo not drawn),inactive: -16.9%
9,O=C1CCCN1c1nccs1,inconclusive: -35% [inhibitor]
10,Cc1ccc(CN2[C@@H](Cc3ccccc3)C(=O)CS2(=O)=O)cc1,inconclusive: -37.6% [inhibitor]
11,C=CCNC(=O)/C(C#N)=C/c1cc(Br)ccc1OC,inactive: 5.99%
12,COC(=O)CSc1nnc(NC(=O)c2ccc3c(c2)OCO3)s1,inconclusive: -57.8% [inhibitor]
13,COC(=O)[C@]1(Cc2ccccc2)N[C@H](CN(C)C(=O)Nc2ccc(OC)cc2)[C@@H]2C(=O)N(Cc3ccccc3)C(=O)[C@@H]21,inconclusive: -30.7% [inhibitor]
14,COc1ccc(CN(C)C(=O)COC(=O)c2ccc(-c3ccccc3)cc2)c(OC)c1OC,inactive: -12.6%
15,CC(C)Cc1nnc(NC(=O)CN2C(=O)NC3(CCCCC3)C2=O)s1,inconclusive: -34.8% [inhibitor]
16,CCC1CC=CC2C1C(=O)N(Cc1ccccc1)C2c1cccc([N+](=O)[O-])c1 (stereo not drawn),inconclusive: -32.3% [inhibitor]
17,Cc1ccc(NC(=O)CSc2nnc(NC(=O)c3ccc(S(=O)(=O)N4CCOCC4)cc3)s2)cc1,inactive: -9.94%
18,Cc1cc(NC(=O)Nc2cccc(C)c2C)no1,inconclusive: -32.2% [inhibitor]
19,COC(=O)c1ccccc1NC(=S)NC(=O)c1ccc(C)cc1,inactive: 11%
20,CC(C)(C)c1ccc(C(=O)NCCc2ccccc2)cc1,inconclusive: -31.4% [inhibitor]
21,COc1cc(OC)c(OC)cc1CNC(=O)c1cc(S(=O)(=O)N2CCOCC2)ccc1F,inactive: -4.27%
22,Brc1ccc(OCc2cn3ccccc3n2)cc1,inconclusive: -36.4% [inhibitor]
23,O=[N+]([O-])c1c(Nc2ccc(Br)cc2)ccc2nonc12,inconclusive: -58.1% [inhibitor]
24,COC(=O)c1ccccc1NC(=O)C1CCCN(c2nnc(-n3cccc3)s2)C1 (stereo not drawn),inconclusive: -36.6% [inhibitor]
